Assay results taken from patent CN117069831A (SHENZHEN BGI LIFE SCIENCE RES INSTITUTE, dated 2023).

Molecular target: SARS-CoV-2 印度delta突变型假病毒 (SARS-CoV-2 delta variant)
Assay: cell-based or functional assay

B1: R-30-FC (Fc fusion)
chain: QVQLQESGGGLVQSGGSLRLSCTASGGIIRLNSMGWYRQAPGKQREPVATIVSDVGTNYADSVKGRFTISRDNAKNTIYLQMNSLKFEDTAVYYCVADRAFVLRGEYEYWGQGTQVTVSS[letters of human IgG1 Fc omitted]
notes: also called R-30-FC双价纳米抗体; 双价纳米抗体
B1 was tested, and the “假病毒中和 IC50 (luciferase signal, Opti-HEK293/ACE2 cells)” value was 0.295 nM.
